The supplement of paper PMC10126150
Values marked as one replicate rest on one cluster of the flow cell; about a third of the high ones do not repeat.

Test system: ATP
Experiment: switch fluorescence ratio, 500 uM ATP over buffer (Cy3 cluster intensity, sum of 5 cycles each) (fold (ratio)); higher = stronger signal-on switching upon ATP binding; sequences stand for … in TCGTCGGCAGCGTCAGATGTGTATAAGAGACAGTTTTTTTTTTTTTTTTTTTTTTTTT…TC
Details: aptamer strand: ATP DNA aptamer (quencher-CACCTGGGGGAGTATTGCGGAGGAAGG + anchor), 100 nM annealed; ATP concentration: 500 uM; one replicate
In short: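 Cy3-labelled switching-strand clusters on a modified Illumina MiSeq flow-cell were annealed to 100 nM quencher-labelled ATP aptamer, imaged in selection buffer, then imaged after 15 min with 500 uM ATP at 22 °C. Five buffer/ATP cycles ran, with NaOH stripping and re-annealing between them. The fluorescence ratio is summed target-cycle over summed buffer-cycle Cy3 intensity per cluster, averaged per switch-domain sequence. Clusters outside 100-1000 RFU were excluded.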
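Further: ATP exposure 15 min at 22 °C before imaging.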

Sequence | switch fluorescence ratio
ACACTTTGCT | 0.999
CTATACGAGG | 1.03
TTTATTCCAA | 1.01
TTATCATCGT | 1.04
ACGGCTCGGG | 0.989
AGCGGTTGTT | 1
TTGGACCTTG | 0.993
GGCCATCATT | 1.07
ACCTGGGTTG | 1.06
ATGAGCCACG | 0.958
CAAGATAATG | 0.964
ATAGGGACCG | 1.01
TAATAACTTC | 1.05
CTGTTCTCGA | 1.01
CGAGGCTGAC | 1.56
ATGACCTTCT | 1.23
GTTAAGAACT | 1.06
TTCGAGTGT | 0.962
CTTTTAGCG | 1
CGCTTTGGCT | 0.974
GGCGCTGCTG | 0.988
GATGAAGGAA | 1.01
CGCCAGTTGT | 1.13

Sequence | switch fluorescence ratio
GGGTTTTACC | 0.954
GTGATTGTTG | 0.994
TTCACCCAGC | 1.26
TGGCTGAGTG | 0.99
TTGTTGATAT | 1.04
AATCAAATTC | 1.03
CTTACTACGG | 1.32
TTGGGACCTT | 1.1
ATTACGAATA | 1.07
AAAACATGAT | 1.04
AACATTCACT | 1.06
CGTTGCGAT | 1.04
TACTTGGAAG | 1.04
GTGGGCTAAA | 0.995
CATGTACTCT | 1.08
TGCATGTACT | 1.2
CTGGATATGG | 0.984
GACTTGCA | 1.1
GCTGTGTAGT | 0.993
CTAGTGCAGT | 1.01
GACTGCCTCG | 0.978
CATGTAATGC | 1.28
CCTAGTCTTA | 0.975

Sequence | switch fluorescence ratio
GCCTCCCAAA | 2.78
CGCACGACCT | 2.3
ATCTCATATT | 0.998
CGCGTTTGTC | 1.07
GGATGGTCAA | 1.01
CGCACGGGCG | 1
AGTTCCCGGG | 1.01
CACTAGGCC | 1.01
ACAAGACACT | 1.02
AGGAGAGACG | 1.03
AGGCTTAGCG | 0.982
CGGCCTAGGC | 1
CTTGTCGGTG | 0.973
AGTGGGGAAC | 1.01
GTCGAAACAC | 1.07
AGTAACGTTG | 1.02
ATGCCGTAGG | 1.02
CTGGCCATTT | 1.03
GGTGACAGTT | 1.02
CACTATCGAC | 1.08
GGGGAAAAG | 1.03
AGTAGAGCTG | 0.952
CACCCGGGAT | 1.14

Sequence | switch fluorescence ratio
TCCACAGTT | 1.01
CAACCCTAGC | 1.07
TCATTAACTT | 1.04
CCAGGCGCC | 0.998
GTCTTTGTGT | 0.972
TAGCTATCGT | 0.996
TGGGGGAT | 0.973
ATCATATGTT | 0.999
TAAATGGGTC | 0.974
CCGTGGTCCT | 0.998
GGTAGCCCAG | 0.994
AAAGAGTTCG | 0.935
CATTGATGTC | 1.03
GTTTGCCAAA | 0.998
AAGGGATCGA | 0.938
TGCGTTTTGG | 1.03
TCGGGCTCCC | 1.09
AACCGTGTTG | 0.986
GTCGCTTACT | 1.4
CCGTAATAGA | 2.9
TAGGGATGGC | 0.992
TCCCTTTGAT | 1
ATTTGCAC | 1.02

Sequence | switch fluorescence ratio
TTTCGGCATA | 1.1
CATGCTATGA | 0.982
GGCGTCGTTC | 0.976
TGGTCGGGCG | 1.08
GTCCTCACCG | 0.98
TAGACGTTTG | 1
TCATTTTAGA | 0.995
GAGGATTTCT | 1.05
CACAGAGTGT | 1.04
ACAGAGAAAC | 1.07
CTAACTACAT | 1.03
ACGCGCTAGT | 0.999
GTTTCCGAAA | 1.03
GGGCAGTCGT | 0.994
TTCGTCGCTT | 1.12
GCTGAGTAGT | 1
GTGATTTGTG | 1.05
ATATGTCCCG | 0.957
TGGTTCAGGA | 0.996
GACAAATTTT | 0.964
CAGTCACATA | 1.09
GTCTGGCTGC | 0.985
TATGCCTATT | 0.972

Sequence | switch fluorescence ratio
TCGTGGCCTA | 1.03
TATCTCCTGA | 0.981
AGTATGGTCA | 0.992
TGGGCCTAGA | 0.986
AGTTTATCCG | 0.995
ATCGTCCAGG | 1.99
GTGCTGTGTC | 1.01
CTACCCGGAG | 1.17
GGTCCGGCCA | 0.961
AATAAGGCGG | 0.987
TGAGTATGTA | 1
AAGTGTCTTT | 0.987
CGTGATTCTT | 1.02
ATCGCGACGT | 1.01
ACTGAAGATC | 1.01
AGGGTCCGT | 0.998
GACACTTTTT | 1.02
TATTGCTTAA | 0.981
AAGGGGTTCC | 0.979
TTACGTGAAG | 0.987
CGTCCCATAG | 2.11
TGGAGTTATC | 0.999
CCATGGCTGA | 0.999

Sequence | switch fluorescence ratio
TTTTCGGACC | 1.06
TACCCGTTTA | 1.04
AAGAACTGTG | 1.11
AATCGCTTTC | 1.06
CTTTCGTCAC | 1.26
TCCTGCTATC | 3.22
TCGAGATACA | 0.991
AACCTGCGAT | 1.24
AGTACCAGCG | 1
TTGGAATG | 1.02
TTGGTGATG | 1.02
CTGAACTGGT | 0.991
CTGGGTTGAG | 0.969
CTGAGTACA | 1.02
CACACGGTTG | 1.07
TCGTTGCGTG | 1.01
CCTTGGTTTT | 1.01
GAAAAATGCT | 0.964
ACAGCAACCA | 1.38
